PubChem BioAssay AID1671194 (National Center for Advancing Translational Sciences (NCATS), 2021)
Screen size: about 140,000 compounds; about 240 (0.17%) were called active. This list was built around the results that the source calls inconclusive (neither active nor inactive); the mix of calls is not that of the screen. The call rests on the fitted dose curve; in most records, active means well fitted inhibition curve with a large enough effect; inconclusive means small, poorly fitted or top-dose-only effect; inactive means no such curve, though single readings can be large or run the other way. Potencies beside an inconclusive call are fits to weak or partial responses and may not hold up.
Potency means the concentration at half of the fitted maximal effect; tags describe the fitted curve by direction and shape.

Assay: Primary qHTS assay for inhibitors of alpha-synuclein gene (SNCA) expression; further: nearly all actives have a fitted effect of over 45% in size
Conditions: HEK-293 SNCA-luciferase knock-in, luminescence, 24 h; series mostly up to 57.2 µM
In the case of CCc1ccc(NC(=O)CN(c2ccc(Cl)cc2)S(=O)(=O)c2ccsc2C(=O)OC)cc1, the Potency is reported as inconclusive: 39.8 µM [inhibitor, single point].
For Cc1ccc(Cn2cc(S(=O)(=O)c3cccc(Cl)c3)c(=O)c3cc(F)c(N4CCCCC4)cc32)cc1, the Potency was inconclusive: 7.94 µM [inhibitor, partial curve, poor fit].
For CN1CCC(NC(=O)Cc2c[nH]c3ncc(-c4ccccc4)cc23)CC1, the Potency was “inactive”.
For O=C(CCC1N=C2c3ccccc3N=C(SCc3ccc(F)cc3)N2C1=O)NCCc1ccccc1 (centres undefined), the Potency was inconclusive: 39.8 µM [inhibitor, single point].
With COc1ccc(-c2[nH]nc3ncc(-c4cn[nH]c4)nc23)cc1F the Potency was inconclusive: 0.891 µM [inhibitor, full curve, poor fit].
With Cc1ccc(-c2c(C(=O)NCc3cccc(C(F)(F)F)c3)nc3sccn23)cc1 the Potency was inconclusive: 28.2 µM [inhibitor, single point].
For CC(C)Cn1c(=O)c(C(=O)NCC(F)F)nc2cccnc21, the Potency was “inactive”.
In the case of O=C(c1nnc(CNCc2cccc(F)c2)n1-c1cccnc1)N1CCC[C@@H]1C(c1ccccc1)c1ccccc1, the Potency is reported as “inactive”.
For COc1ccc(-c2noc([C@@H]3CCCN3C(=O)c3cccc(F)c3)n2)cc1OC, the Potency was inconclusive: 11.2 µM [inhibitor, partial curve, poor fit].
In the case of CC(C)N1C(=O)CO[C@H]2CCN(Cc3ccncc3Cl)CC[C@@H]21, the Potency is reported as inconclusive: 56.2 µM [inhibitor, single point].
For COc1ccccc1C(=O)NC1CCN(c2cc(-c3ccc(Cl)cc3)[nH]n2)CC1, the Potency was inconclusive: 3.55 µM [inhibitor, full curve].
For CCC(C(=O)Nc1cccc(-c2nc3cccnc3s2)c1C)c1ccccc1 (centres undefined), the Potency was inconclusive: 39.8 µM [inhibitor, single point].
For OC[C@@H]1CNC[C@H]1C1CCN(C2CCOCC2)CC1, the Potency was “inactive”.
In the case of Cc1cccc2c1N(Cc1ccccc1OCCC(C)C)C(=O)C2=O, the Potency is reported as inconclusive: 35.5 µM [inhibitor, single point].
For Cc1nc2nc(NC(=O)c3ccc(C(C)(C)C)cc3)[nH]n2c(=O)c1Cc1ccccc1, the Potency was inconclusive: 39.8 µM [inhibitor, single point].
With COc1cccc(N2C(=O)NC(=NC3CCCC3)C23CCN(CC2CCCCC2)C3)c1 (centres undefined) the Potency was inconclusive: 22.4 µM [inhibitor, partial curve, poor fit].
In the case of CCOc1ccc(NC(=O)CSc2oc(-c3ccc(F)cc3)nc2S(=O)(=O)c2ccc(C)cc2)cc1, the Potency is reported as inconclusive: 0.158 µM [inhibitor, partial curve, poor fit].
With CC1(C)NC(=O)N(CCC(=O)N2CCc3c(nc4cc(-c5ccccc5)[nH]n4c3=O)C2)C1=O the Potency was “inactive”.
In the case of COc1cccc(C(=O)NCC2Cn3cccc3C(=O)N2C)c1 (centres undefined), the Potency is reported as inconclusive: 8.91 µM [inhibitor, partial curve, poor fit].
In the case of Cc1ccc(Nc2ccnc(N3CCCC(C(=O)NCc4ccc(F)cc4)C3)n2)cc1 (centres undefined), the Potency is reported as inconclusive: 35.5 µM [inhibitor, single point].
With CC(C)(C)CC(=O)N1CCC2(CC1)N(c1ccccc1)C(=O)CS2(=O)=O the Potency was inconclusive: 0.891 µM [inhibitor, full curve, poor fit].
With O=C(CCC1CCN(c2cc(NC3CC3)ncn2)CC1)NCc1cc(F)cc(F)c1 the Potency was active: 4.47 µM.
For O=C1N(Cc2ccccc2Cl)c2ccccc2C1(O)c1c[nH]c2ccccc12 (centres undefined), the Potency was inconclusive: 3.98 µM [inhibitor, full curve, poor fit].
For O=[N+]([O-])c1ccc2c(c1)S(=O)(=O)C=C2, the Potency was active: 5.01 µM.
For Cc1c(C)n(Cc2ccc(F)cc2)c2ccc(C(=O)N3CCN(c4ccc(F)cc4)CC3)cc12, the Potency was inconclusive: 8.91 µM [inhibitor, partial curve].
For COc1ccc(NC(=O)N[C@H]2C[C@@H](C(=O)N[C@H](Cc3c[nH]c4ccccc34)C(N)=O)N(C(C)=O)C2)cc1, the Potency was inconclusive: 39.8 µM [inhibitor, single point].
In the case of COc1cccc(C(=O)N2CCC(c3n[nH]c(=O)n3-c3ccc(C)cc3)CC2)c1, the Potency is reported as “inactive”.
With O=C(C1CCN(c2ncnc3c2nc2n3CCCCC2)CC1)N1CCN(c2ccccc2F)CC1 the Potency was inconclusive: 3.55 µM [inhibitor, single point].
For CC(C)N1C(=O)C2(CCN(C(=O)Cc3c[nH]c4ccccc34)CC2)C1c1ccccc1 (centres undefined), the Potency was inconclusive: 39.8 µM [inhibitor, single point].
For Cc1ccc(NC(=O)N2Cc3[nH]cnc3C[C@H]2c2nc(-c3ccc4ccccc4c3)no2)cc1, the Potency was “inactive”.
With CCOC(=O)C1(Cc2cccc(Cl)c2)CCCN(Cc2cnn(C)c2)C1 (centres undefined) the Potency was inconclusive: 14.1 µM [inhibitor, partial curve, poor fit].
In the case of CC1CCc2c(cc(-c3ccccc3)n2-c2ccc(C(=O)NC(C)C)cc2)C1 (centres undefined), the Potency is reported as inconclusive: 39.8 µM [inhibitor, single point].
In the case of CNC(=O)c1cc(Br)cn2ccnc12, the Potency is reported as “inactive”.
With Nc1ccc(-c2ccc3ccccc3n2)cc1 the Potency was inconclusive: 14.1 µM [inhibitor, single point].
In the case of Cc1cc(C)n(CCC(=O)N[C@@H]2[C@@H]3CCO[C@@H]3[C@@H]2C2CCCC2)c(=O)n1, the Potency is reported as inconclusive: 8.91 µM [inhibitor, partial curve, poor fit].
In the case of CC1=C(C(=O)OC2CCCC2)C(c2c(Cl)cccc2Cl)CC(=O)N1 (centres undefined), the Potency is reported as inconclusive: 25.1 µM [inhibitor, partial curve, poor fit].
In the case of Cc1ccc(S(=O)(=O)N2CCCC2C(=O)N2CCC(c3ccccc3)CC2)cc1 (centres undefined), the Potency is reported as “inactive”.
With CCOc1ccc(CN2CCc3nc(N4CCN(C)CC4)[nH]c(=O)c3CC2)cc1 the Potency was inconclusive: 11.2 µM [inhibitor, partial curve].
In the case of COc1ccc(-c2nc3ccccc3n3c(-c4cccc(C)c4)c4c(=O)n(C)c(=O)n(C)c4c23)cc1OC, the Potency is reported as inconclusive: 31.6 µM [inhibitor, single point].
In the case of COc1ccc(N2CC3(COCC2=O)CN(c2ccc(C(F)(F)F)cn2)C3)cn1, the Potency is reported as “inactive”.
In the case of CCOC(=O)c1cccc(NC(=O)N2CC[C@@H](CC(=O)NCCN(C)C)[C@@H](CC)C2)c1, the Potency is reported as “inactive”.
In the case of N#Cc1cccc(-c2nc3cnc(N4CCNCC4)nc3n(C3CC3)c2=O)c1, the Potency is reported as inconclusive: 25.1 µM [inhibitor, partial curve, poor fit].
With Cc1ccc(N2C(=O)c3n[nH]c(C)c3C2c2ccc(Cl)cc2)cc1 (centres undefined) the Potency was “inactive”.
With CCOc1ccc(CCCC(=O)N[C@@H]2CCOC[C@H]2OC)cc1C the Potency was inconclusive: 2.51 µM [inhibitor, full curve].
In the case of Cc1ccccc1CSc1nnc2[nH]c(=O)cc(-c3ccccc3)n12, the Potency is reported as inconclusive: 39.8 µM [inhibitor, single point].
With Cc1oc2ccn(Cc3ccccc3F)c(=O)c2c1C(=O)NCc1cccc(Cl)c1 the Potency was “inactive”.
With COc1ccccc1-c1cnc2n[nH]c(-c3ccc(F)cc3C)c2n1 the Potency was inconclusive: 31.6 µM [inhibitor, single point].
For COCC(=O)N[C@H]1CCN2C(=O)c3cc(-c4ccc(F)cc4F)ccc3NC(=O)[C@@H]2C1, the Potency was inconclusive: 10 µM [inhibitor, single point].
In the case of CCOC(=O)c1ccc(N2C(=O)c3[nH]nc(-c4ccc(C)cc4)c3C2c2cccs2)cc1 (centres undefined), the Potency is reported as inconclusive: 12.6 µM [inhibitor, partial curve, poor fit].
In the case of CC(C)NC(=O)C1CCN(c2nccc(Nc3ccccc3Cl)n2)CC1, the Potency is reported as inconclusive: 17.8 µM [inhibitor, single point].
For Clc1ccccc1C1(c2ccnc(NCc3ccccn3)n2)CCNCC1, the Potency was inconclusive: 39.8 µM [inhibitor, single point].
In the case of O=C(NCc1ccccc1)c1ccc2c(c1)OCCN(C1CCC1)C2, the Potency is reported as “inactive”.
For N#CC1(c2cccc(C(=O)Nc3cc(Oc4ccc5nc(NC(=O)C6CC6)sc5n4)ccc3F)c2Cl)CC1, the Potency was inconclusive: 5.41 µM [inhibitor, full curve, poor fit].
In the case of O=C(NCc1ccccc1F)c1ccc2c(c1)CN(Cc1ccsc1)CCO2, the Potency is reported as inconclusive: 10 µM [inhibitor, partial curve, poor fit].
With CCCOc1ccccc1C(C)Nc1nc(-c2cccnc2)nc2c1CNC2 (centres undefined) the Potency was “inactive”.
In the case of CCCN(C)c1nccnc1OC1CCN(C(=O)C(CC)CC)C1 (centres undefined), the Potency is reported as “inactive”.
In the case of CC(=O)N1CC2(CCN(CC3CC3)C2)Cc2ccccc21 (centres undefined), the Potency is reported as “inactive”.
With COCCn1c(=O)c2c(n1Cc1ccccc1)CN(Cc1cccnc1OC)CC2 the Potency was “inactive”.
With CC1(C)C(=O)N(CCOc2ccccc2)[C@H]2CN(C3CCOCC3)C[C@H]2[S+]1(=O)[O-] the Potency was inconclusive: 56.2 µM [inhibitor, single point].
With O=C(CCC[C@H]1NC[C@@H]2C[C@H]1CN(Cc1ccccc1)C2)NCc1ccc(N2CCOCC2)cc1 the Potency was “inactive”.
In the case of COCCNC(=O)C1CCN(C(=O)c2cc3sccc3n2Cc2ccc(Cl)cc2)CC1, the Potency is reported as inconclusive: 7.94 µM [inhibitor, full curve, poor fit].
In the case of O=c1ccc2cc(S(=O)(=O)Nc3ccc(F)c(Cl)c3)ccc2[nH]1, the Potency is reported as inconclusive: 35.5 µM [inhibitor, single point].
For CN(C)c1ccc2c(c1)CN(C(=O)c1cnn(C)c1)CCO2, the Potency was “inactive”.
For COc1ccc(NC(=O)Cn2c(=O)n(Cc3ccccc3OC)c(=O)c3cccnc32)cc1Cl, the Potency was inconclusive: 4.47 µM [inhibitor, full curve, poor fit].
